# The other results are listed elsewhere or left out. Values were computed here from the reads of four pooled replicates and scatter widely.
# Target: T1, Pho4 (S. cerevisiae) (UniProt P07270)
# T1 sequence: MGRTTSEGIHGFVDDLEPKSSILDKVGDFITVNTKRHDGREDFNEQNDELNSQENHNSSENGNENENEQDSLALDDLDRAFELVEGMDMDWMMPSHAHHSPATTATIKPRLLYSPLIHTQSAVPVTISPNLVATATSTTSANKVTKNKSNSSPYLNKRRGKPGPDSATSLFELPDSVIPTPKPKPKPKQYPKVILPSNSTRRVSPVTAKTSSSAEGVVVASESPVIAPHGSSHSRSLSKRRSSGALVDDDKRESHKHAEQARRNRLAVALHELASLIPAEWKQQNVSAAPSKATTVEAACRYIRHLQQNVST
# Assay: relative binding free energy (BET-seq); higher = weaker binding
# Conditions: reference: library average
row,Sequence,relative binding free energy
1,CATGGCACGTGTTAAT,0.11 kcal/mol
2,AATTACACGTGTTATG,0.19 kcal/mol
3,GATAGCACGTGTTTAG,-0.04 kcal/mol
4,GGTTGCACGTGTGCTA,0.04 kcal/mol
5,ATTTGCACGTGTTATT,0.05 kcal/mol
6,GGGTGCACGTGGGGGG,-0.11 kcal/mol
7,AGGTGCACGTGGGGGG,-0.12 kcal/mol
8,ATGTGCACGTGCTTAG,-0.15 kcal/mol
9,CGGGGCACGTGTCTGG,-0.08 kcal/mol
10,ATGTGCACGTGTGCGC,-0.04 kcal/mol
11,AATTGCACGTGGTGGC,0.01 kcal/mol
12,TAAATCACGTGGGTGG,0.06 kcal/mol
13,AATCGCACGTGTTTTA,0 kcal/mol
14,TGAGACACGTGTGCGG,-0.06 kcal/mol
15,GGGAGCACGTGAGCTG,0.2 kcal/mol
16,GCAGTCACGTGGTGCG,0.09 kcal/mol
17,GGAGCCACGTGGTGGT,-0.11 kcal/mol
18,TGGACCACGTGTGGGG,0 kcal/mol
19,CAGATCACGTGTGGGA,0.31 kcal/mol
20,AAGGTCACGTGTGTAT,0.18 kcal/mol
21,TCAGGCACGTGGATGG,0.02 kcal/mol
22,TTTAACACGTGGGGAG,-0.08 kcal/mol
23,TTGACCACGTGTGTAG,0.02 kcal/mol
24,GGTAGCACGTGTTTTA,-0.03 kcal/mol
25,ATGAGCACGTGATGTG,0.06 kcal/mol

row,Sequence,relative binding free energy
1,TATTGCACGTGTTACA,-0.07 kcal/mol
2,TCGTGCACGTGTGGAT,0.08 kcal/mol
3,GGAGCCACGTGAGGGC,0.13 kcal/mol
4,TGTGGCACGTGAAAGA,0.09 kcal/mol
5,GAGTTCACGTGTGGCT,0.39 kcal/mol
6,AGTTTCACGTGATTAA,0.28 kcal/mol
7,ATGTGCACGTGAGGAA,-0.04 kcal/mol
8,CTTGACACGTGTTGGA,-0.02 kcal/mol
9,TATTTCACGTGGAACG,0.33 kcal/mol
10,CAAGGCACGTGTATGT,-0.15 kcal/mol
11,GAAGTCACGTGGATGC,0.37 kcal/mol
12,TGTGGCACGTGGGGCC,-0.18 kcal/mol
13,TTGGGCACGTGATCAG,-0.05 kcal/mol
14,TGATGCACGTGGCTTA,-0.16 kcal/mol
15,CAGTACACGTGGTTGT,-0.12 kcal/mol
16,GAAGGCACGTGTGCGT,-0.08 kcal/mol
17,TTAGCCACGTGTAGGG,-0.02 kcal/mol
18,TGCGACACGTGGGGGC,0.04 kcal/mol
19,GTTAGCACGTGAAGGA,0.23 kcal/mol
20,TGGATCACGTGAATGT,0.28 kcal/mol
21,TGAGGCACGTGGACGG,-0.13 kcal/mol
22,GTGACCACGTGGGAGT,-0.1 kcal/mol
23,GGGAGCACGTGGTGGC,-0.05 kcal/mol
24,AATTGCACGTGAGAGG,0.31 kcal/mol
25,CGCGTCACGTGAAGGT,0.27 kcal/mol

row,Sequence,relative binding free energy
1,ATGCACACGTGGATTG,0.09 kcal/mol
2,GATGCCACGTGGGGAG,0.02 kcal/mol
3,TACTTCACGTGGCGTG,0.19 kcal/mol
4,ATATTCACGTGGGTTA,0.06 kcal/mol
5,AGTTGCACGTGGTGAG,-0.1 kcal/mol
6,GAATGCACGTGAGGGA,0.18 kcal/mol
7,GGTAACACGTGTATTT,0 kcal/mol
8,AAGAGCACGTGTTTAT,-0.08 kcal/mol
9,TGAAACACGTGTGGTT,-0.05 kcal/mol
10,ATTGGCACGTGTCAGT,-0.12 kcal/mol
11,TCTTTCACGTGAGGGA,0.22 kcal/mol
12,ACTGACACGTGTTAGG,0.12 kcal/mol
13,TTTGTCACGTGATTGC,0.36 kcal/mol
14,TATAACACGTGTAAGG,0 kcal/mol
15,TTCATCACGTGTAAGT,0.13 kcal/mol
16,GTTTTCACGTGCATTA,0.24 kcal/mol
17,ATTTGCACGTGGAGCA,0.07 kcal/mol
18,GCGGGCACGTGAAGAG,0.24 kcal/mol
19,GTGAGCACGTGTGTCA,-0.07 kcal/mol
20,TGAGGCACGTGGGAAG,-0.04 kcal/mol
21,TAATGCACGTGCGTAA,0.05 kcal/mol
22,CAGTTCACGTGAGGTG,0.37 kcal/mol
23,ATGTTCACGTGTCGAA,0.35 kcal/mol
24,GGCGACACGTGTAGGA,0.06 kcal/mol
25,GAGTTCACGTGTATAT,0.21 kcal/mol

row,Sequence,relative binding free energy
1,GGATTCACGTGGTGCA,0.15 kcal/mol
2,TTTAGCACGTGTCCGT,-0.12 kcal/mol
3,AGTGTCACGTGCATTT,-0.05 kcal/mol
4,GGGGACACGTGGACAG,0 kcal/mol
5,GAGATCACGTGGATGT,0.26 kcal/mol
6,TGGTTCACGTGAGTTG,0.39 kcal/mol
7,AGAGTCACGTGCGTAG,0.07 kcal/mol
8,TTTATCACGTGCATTA,-0.05 kcal/mol
9,TGGGCCACGTGTTGCG,0 kcal/mol
10,AGTTTCACGTGTGGGG,0.24 kcal/mol
11,TCGTGCACGTGCTGTG,-0.05 kcal/mol
12,GTGTCCACGTGTGCTG,0.14 kcal/mol
13,ATTAACACGTGGCGGA,0.13 kcal/mol
14,TCATACACGTGGAGGG,-0.05 kcal/mol
15,TTTTGCACGTGCGTAC,-0.05 kcal/mol
16,TACGTCACGTGCAGGT,0.11 kcal/mol
17,TTAATCACGTGCTCGG,0.07 kcal/mol
18,AAAGTCACGTGGGCAG,-0.09 kcal/mol
19,GTCTGCACGTGGGAGA,0.03 kcal/mol
20,GTCAGCACGTGTGATG,0.18 kcal/mol
21,AGGTTCACGTGGTCGT,0.21 kcal/mol
22,TTATGCACGTGAGGAT,0.22 kcal/mol
23,TTGGTCACGTGACTTA,0.15 kcal/mol
24,CGTTGCACGTGTTCGT,0.05 kcal/mol
25,GTTTTCACGTGCAGAT,0.34 kcal/mol

row,Sequence,relative binding free energy
1,TATTTCACGTGGTCTT,0.21 kcal/mol
2,GGAGTCACGTGCGGTC,0.19 kcal/mol
3,GTATTCACGTGGGAGG,0.17 kcal/mol
4,ATGGTCACGTGGGGCG,-0.03 kcal/mol
5,TTTGTCACGTGTCATT,0.02 kcal/mol
6,GAGTTCACGTGGGTGT,0.22 kcal/mol
7,GGTGTCACGTGGTTGA,0.09 kcal/mol
8,TATGGCACGTGGAACG,-0.02 kcal/mol
9,TTGGTCACGTGACCGG,0.1 kcal/mol
10,GTCGTCACGTGGCGTT,-0.02 kcal/mol
11,TGTGCCACGTGGGGCG,-0.2 kcal/mol
12,GTGTTCACGTGGTGTA,0.17 kcal/mol
13,TTTCACACGTGGTTCG,0.12 kcal/mol
14,ATTTTCACGTGGGGAA,0.13 kcal/mol
15,GGTAACACGTGCGGTG,-0.04 kcal/mol
16,TTTTGCACGTGGGCTT,-0.14 kcal/mol
17,GGAGACACGTGGGCGT,-0.03 kcal/mol
18,AACGTCACGTGATGGG,0.31 kcal/mol
19,TATCTCACGTGTAGTT,0.2 kcal/mol
20,TATGACACGTGGTGGT,-0.02 kcal/mol
21,TTGCGCACGTGGGTAG,-0.25 kcal/mol
22,TCGAGCACGTGTAGGT,-0.09 kcal/mol
23,GGATGCACGTGTTCTG,-0.01 kcal/mol
24,GTGGGCACGTGACTTT,-0.08 kcal/mol
25,ATGGGCACGTGTTGAA,-0.08 kcal/mol

row,Sequence,relative binding free energy
1,TTTTTCACGTGACGGC,0.36 kcal/mol
2,TTCTTCACGTGGCTTT,0.2 kcal/mol
3,TGCGTCACGTGGAGAA,0.13 kcal/mol
4,AAAAGCACGTGAATTG,0.24 kcal/mol
5,AGTTGCACGTGGCGTT,-0.07 kcal/mol
6,TGTGGCACGTGGTGCG,-0.23 kcal/mol
7,AATAGCACGTGTTATG,-0.06 kcal/mol
8,TAGTACACGTGCTGGT,0.08 kcal/mol
9,TGTCGCACGTGAAGTT,0.26 kcal/mol
10,TAGAACACGTGCGGTG,0.07 kcal/mol
11,CGGGTCACGTGGGCCG,-0.07 kcal/mol
12,GTATCCACGTGGTAGT,-0.06 kcal/mol
13,AGGGTCACGTGGATAT,0.12 kcal/mol
14,GAGTACACGTGTTAGT,0.11 kcal/mol
15,GTGGGCACGTGAAGCT,0.22 kcal/mol
16,GGTCACACGTGGTTAT,0.12 kcal/mol
17,ATTGGCACGTGAGGGA,0.06 kcal/mol
18,GTGTGCACGTGGATCG,0.09 kcal/mol
19,GGGATCACGTGGTACG,0.03 kcal/mol
20,TAGTTCACGTGGTATA,0.14 kcal/mol
21,GTTAGCACGTGGATTA,-0.06 kcal/mol
